# Some of the results follow. The list includes weakly bound sequences.
# Biological target: MaxL homodimer (UniProt P61244)
# Assay: universal protein-binding microarray (PBM)
# Conditions: PBS-based mixture, 10 nM His-tagged protein dimer, 2% milk, 200 ng/uL BSA, 50 ng/uL salmon testes DNA, 0.02% TX-100; detection with Alexa 488 anti-His …; high values mean tight binding; most listed sequences are background and not binding sites; double strand, one strand shown
# Sequence of UniProt P61244 (P61244 whole entry): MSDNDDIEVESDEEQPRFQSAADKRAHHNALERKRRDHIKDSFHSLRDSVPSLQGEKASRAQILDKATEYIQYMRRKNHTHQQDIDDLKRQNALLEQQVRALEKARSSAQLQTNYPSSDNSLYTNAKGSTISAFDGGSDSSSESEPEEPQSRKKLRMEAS
row,Sequence,binding signal (normalized occupancy)
1,GTGGACAC,0.0794
2,GAGGCTAC,0.0682
3,CCCATTTC,0.0758
4,ACATTAGT,0.0867
5,GATCCAGA,0.0723
6,CTCTACCA,0.0784
7,CTCCAAAC,0.0751
8,CTTGTCTA,0.0753
9,GGTCAACA,0.0813
10,CTTACCTA,0.0755
11,CTGCCGAA,0.069
12,GCGTAATA,0.0783
13,GATTACCA,0.0702
14,CCAATTGG,0.0757
15,CGCCACCA,0.0773
16,CAGGTCGA,0.0645
17,CTGACAAC,0.0725
18,GTTCTAGA,0.0745
19,AATTTTTG,0.0733
20,AAGATGCG,0.0781
21,CACTTACA,0.0837
22,AATGGGTG,0.0771

row,Sequence,binding signal (normalized occupancy)
1,ACTCCAGT,0.0743
2,GCCATGCA,0.0904
3,CCTAGAGA,0.0732
4,ATGCCCCG,0.0818
5,GGTATTCA,0.0802
6,ACCACTGA,0.0725
7,GAAACGAC,0.0712
8,CAACGAAG,0.0687
9,CGGCCTAA,0.0684
10,GACATTAC,0.0843
11,CATGTCCC,0.0808
12,CCGCACGG,0.0742
13,CTAGACGA,0.0685
14,CTGAGACC,0.0742
15,CCTCTAGC,0.0704
16,AGACCTAC,0.0715
17,CATCAGCC,0.0757
18,AGGTACAG,0.073
19,CGAGGAAC,0.0734
20,ATAGACAC,0.0813
21,ACCGCCCG,0.0683
22,GCCGCCTA,0.0717

row,Sequence,binding signal (normalized occupancy)
1,GGTGTTCA,0.0754
2,GAGCTCGA,0.0651
3,CCTTACCC,0.0795
4,ATCGATCG,0.0787
5,CGGTAACC,0.0728
6,AGACAAAG,0.0721
7,AGTTTAAA,0.0709
8,AATCATGC,0.0958
9,ATCTCACG,0.0793
10,ACACGCGT,0.13
11,CCCTAGAA,0.0758
12,CCGAGTGA,0.0716
13,CCCTATGA,0.0755
14,CGGTCTAA,0.0692
15,CTAGCGCC,0.0711
16,CTGCGAAA,0.0712
17,ACTTTACT,0.0726
18,AGCGTGCG,0.109
19,CGACCAAC,0.0711
20,AAAGCTCC,0.0692
21,GGTACAAC,0.0788
22,GTAATAGA,0.0753

row,Sequence,binding signal (normalized occupancy)
1,CTACGAAA,0.0737
2,AGTTATTG,0.0779
3,GACAGAAC,0.0726
4,CCTCATAA,0.0838
5,GTCTAGTA,0.0805
6,CCGGACAC,0.0749
7,GAAGGCAA,0.072
8,CTAGGTTC,0.0693
9,ACCGTGCA,0.0786
10,CCGTTGCC,0.0682
11,AGAAAGCA,0.0839
12,GAATTGAC,0.0748
13,GCCGTTTA,0.0727
14,AACCCATG,0.0961
15,CGCGGATC,0.0754
16,CCATTGGC,0.0715
17,CTCAGTTA,0.074
18,CGTCTCCA,0.0728
19,ACGCTGTC,0.0787
20,ACCATACG,0.0805

# — publication PMC4242493
